According to PubChem BioAssay AID652104 (National Center for Advancing Translational Sciences (NCATS), 2013):
In all, about 410,000 compounds went through this assay and about 7,200 (1.8%) were called active. Inconclusive means that the source gave no clear call. Such entries were picked first, then a sample of the others. Calls come from the whole dose curve; as a rule, active = well fitted activation curve with a large enough effect; inconclusive = small, poorly fitted or top-dose-only effect, or another doubt; inactive = no such curve, though single readings can be large or run the other way. A potency beside an inconclusive call is a rough fit, not a confirmed value.

Test: qHTS of TDP-43 Inhibitors; note: nearly all actives have a fitted effect of over 50% in size; for growth rescue (activation): % of control where 0% means no effect
Details: TDP-43 expressing yeast growth rescue, BacTiter-Glo, 24 h; growth rescue (activation): at 46.1 µM (top of the series) unless noted
Summary of the method: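 In this qHTS, compounds that restore growth of yeast expressing TDP-43 appear as activators. Cells (OD600=0.02, galactose medium, raffinose-pregrown) are incubated with compound 24 hr at 30 deg C and growth is quantified by BacTiter-Glo.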
Potency is the fitted concentration of half-maximal effect; tags give direction and shape of the fitted curve.

Growth rescue (activation), inconclusive:
CCCCOC(=O)Sc1nc2ccccc2o1 -88.2% [activator]
O=C(C=Cc1ccccc1O)c1ccccc1O -92.4% [activator]

Growth rescue (activation), inactive:
Cc1ccc(OCCC(=O)N2CCN(c3ccc(O)cc3)CC2)cc1 -3.27%
CC1CCCN(Cc2c(O)ccc3c4c(c(=O)oc23)CCCC4)C1 (stereo unspecified) 0.754%
COc1ccc(N)c(C)c1 28%
COC(=O)CNc1cc(S(=O)(=O)N2CCCCC2)ccc1Oc1ccc(C(=O)OC)cc1 -2.24%
O=C(O)C1CC(=O)N(Cc2cccnc2)C1 (stereo unspecified) -14.9%
CCOc1ccccc1NC(=O)CN1CCN(S(=O)(=O)c2ccc(Br)cc2)CC1 0% [at 9.22 µM]
COc1c(Cl)cc(Cl)cc1CNCCSc1nnnn1C -32.4%
COc1cc2c(cc1OC)C(COc1ccccc1OC)N(C(=O)c1ccccc1OC)CC2 (stereo unspecified) 22.7%
Cc1cccc(C(=O)Nc2cccc(OCc3cc(=O)n4ccccc4n3)c2)c1 7.31%
NS(=O)(=O)c1cccc(NC(=O)CSc2nc3ccc(Cl)cc3[nH]2)c1 23.2%
O=c1c(Cc2ccc(Cl)cc2)c(O)ccn1Cc1cccc(Cl)c1 -3.85%
CC(C)C(C)NC(=O)CN1C(=O)NC2(CCc3ccccc3C2)C1=O (stereo unspecified) -10.3%
CCn1cc(C(=O)Nc2ccc(C(C)C)cc2)c2cc(OC)c(OC)cc2c1=O 13.8%
CCCCc1nnc(NC(=O)Cc2ccc(OC)c(S(=O)(=O)N3CCOCC3)c2)s1 -13.7%
CCN(CC)c1ccc2nc3c4ccccc4c(=O)cc-3oc2c1 -17%
COc1ccc(NC(=O)Nc2ccccc2SC)c(OC)c1 -11.4%
CC(=O)c1cc(-c2ccccc2)n(CC(=O)NCc2ccccc2C)c1C 11.4%

Potency, inconclusive:
COc1cc(C2c3c(-c4ccccc4O)n[nH]c3C(=O)N2CCO)ccc1OCC(C)C (stereo unspecified) 35.5 µM [activator, partial curve, poor fit]
O=C(/C=C/c1cccc(F)c1)OCC(=O)c1ccc[nH]1 5.01 µM [activator, full curve, poor fit]
Cc1cccc(NC(=S)NNC(=O)c2ccccc2OC(F)F)c1 10 µM [activator, partial curve]
Cc1occc1C(=O)Nc1cccc2ccccc12 28.2 µM [activator, single point]
Clc1ccc(OCc2nnc(SCc3nnc(-c4ccccc4)o3)o2)c(Cl)c1 20 µM [activator, single point]
COc1cc2[nH]c(=S)n(C3CCCC3)c(=O)c2cc1OC 14.1 µM [activator, single point]
Cc1cccc(Oc2ccc(NC(=O)CCC(=O)OCC(=O)c3ccc(Br)cc3)cc2)c1C 35.5 µM [activator, partial curve]
O=S(=O)(NCC1COc2ccccc2O1)c1ccccc1F (stereo unspecified) 31.6 µM [activator, single point]
COc1ccccc1CC(=O)O/N=C(\N)Cc1cccc2ccccc12 3.55 µM [activator, partial curve]
COc1ccc(/C(=C\Nc2ccc(C)c(C)c2)C(C)=O)cc1OC 0.562 µM [activator, full curve, poor fit]
Cc1ccc(SCCSc2ncccn2)cc1 12.6 µM [activator, single point]
COCCOc1ccc(C(F)(F)F)cc1NC(=O)c1ccccc1 7.94 µM [activator, partial curve]
Clc1ncn(C23CC4CC(CC(C4)C2)C3)n1 11.2 µM [activator, partial curve]
CCOc1ccccc1NC(=O)COC(=O)C(CC)c1ccccc1 (stereo unspecified) 10 µM [activator, partial curve]
CC(Oc1ccccc1Br)C(=O)N1CCc2ccccc21 (stereo unspecified) 35.5 µM [activator, single point]
Cc1ccc(C2=NC3(CCCC3)NC2=S)cc1 7.94 µM [activator, partial curve]
CCc1cccc(NC(=O)CCS(=O)(=O)c2cc3c4c(c2)CCN4C(=O)CC3)c1 5.01 µM [activator, full curve, poor fit]
O=C(Nc1ccc(F)c([N+](=O)[O-])c1)c1cccs1 12.6 µM [activator, partial curve]
COc1ccc(-c2csc(C(C)(O)c3ccccc3)n2)cc1OC (stereo unspecified) 2.51 µM [activator, full curve]
Cc1ccc(C(=O)N2c3ccccc3CC2C)o1 (stereo unspecified) 11.2 µM [activator, single point]
CCOC(=O)Oc1ccc2c(=O)c(Oc3cccc(C)c3)coc2c1 17.8 µM [activator, single point]
Cc1ccc2occ(CC(=O)N3CCN(c4cccc(Cl)c4)CC3)c2c1 12.6 µM [activator, single point]
O=C(COc1ccc(Cl)cc1Cl)N/N=C/c1ccccn1 35.5 µM [activator, single point]
CCN(CC(=O)Nc1ccc(NC(C)=O)cc1)Cc1c(O)ccc2cc(Br)ccc12 12.6 µM [activator, single point]
O=C(COC(=O)c1c2c(nc3ccccc13)CCCCC2)NCc1ccc2c(c1)OCO2 22.4 µM [activator, single point]
CC(C)NCc1cccc([N+](=O)[O-])c1 5.62 µM [activator, single point]
COc1ccc(N(C)C(=O)c2cc3c(s2)-c2ccccc2OC3)cc1 31.6 µM [activator, single point]
CC1(C)Cc2cccc(OC(=O)NCCc3ccc(F)cc3)c2O1 10 µM [activator, partial curve, poor fit]
CNC(=S)N(CCc1c(C)[nH]c2ccc(C)cc12)Cc1cccnc1 0.891 µM [activator, full curve, poor fit]
COc1ccc(C(=O)N2CCN(c3nc4c(C)c(Cl)ccc4s3)CC2)c(OC)c1 35.5 µM [activator, single point]
Cc1cccc(C2c3[nH]c4ccccc4c3CCN2C(=O)c2cc(-c3cccn3C)n[nH]2)n1 (stereo unspecified) 14.1 µM [activator, single point]
Oc1c(C(Nc2ccccn2)c2cccnc2)cc(Cl)c2cccnc12 (stereo unspecified) 35.5 µM [activator, single point]
Cc1ccccc1NC1c2ccccc2C(=O)N1Cc1ccco1 (stereo unspecified) 15.8 µM [activator, partial curve]
O=S(=O)(c1ccccc1)N1CN(c2ccc(F)cc2F)c2nc3ccccc3nc21 10 µM [activator, partial curve]
O=C(NCc1ccco1)c1ccc2c(c1)N(Cc1ccccc1F)C(=O)c1ccccc1S2(=O)=O 0.562 µM [activator, full curve]
Cc1cc(C)c(C#N)c(SCc2nnc(-c3ccccc3[N+](=O)[O-])o2)n1 25.1 µM [activator, single point]
O=c1oc2ccccc2cc1-c1nnc(-c2cccc(Br)c2)o1 2.82 µM [activator, partial curve]
CCc1cnc2c(c1SCCC(C)C)c(=O)n(C)c(=O)n2C 17.8 µM [activator, partial curve]
CCCc1c(-c2ccc(F)cc2F)ncn1Cc1cccc(-c2ccccc2)c1 0.708 µM [activator, full curve, poor fit]
CSCc1c(C(=O)Nc2ccc(N3CCOCC3)cc2)oc2ccccc12 17.8 µM [activator, single point]
CCOc1ccc(-n2cc(-c3ccccc3)c3c(=S)nc[nH]c32)cc1 35.5 µM [activator, single point]
COCC(C)n1c(C)cc(C(=O)CSc2nc(C)c(C)c(C)n2)c1C (stereo unspecified) 31.6 µM [activator, partial curve]
CCCCOC(=O)c1cc(Cl)c(O)c(OC)c1 15.8 µM [activator, single point]
Cc1cc(C)c(OCC(=O)N/N=C/c2ccco2)c(C)c1 20 µM [activator, single point]
COc1ccc(C(=O)NNC(=S)NC(=O)c2cc(-c3ccccc3)nc3ccccc23)cc1 17.8 µM [activator, single point]
CC(C)c1onc(C(=O)NCc2ccc(F)cc2)c1[N+](=O)[O-] 7.08 µM [activator, full curve]
CC(C)OCCCNC(=O)c1nn(C)c2c1CSc1ccccc1-2 7.08 µM [activator, partial curve]

Potency, active:
COc1ccc(-c2csc(C(NC(C)=O)c3ccc(F)c(F)c3)n2)cn1 (stereo unspecified) 35.5 µM
CC1CCCC(C)N1CC(O)Cn1c2ccccc2c2ccccc21 (stereo unspecified) 11.2 µM
CC(=O)c1cccc(NC(=O)c2nc(-c3ccccc3)n(-c3cccc(C)c3)n2)c1 22.4 µM
Cc1ccc(NC(=O)COc2cccc3c2OC(C)(C)C3)c(O)c1 11.2 µM
COc1ccccc1CC(=O)Nc1nc(-c2ccc(F)c(F)c2)cs1 17.8 µM
